Data on 7 molecules can be found in the supplement of paper PMC11383711.

B1: 01.e.01 (protein)
chain 1: QVRLVESGGGVVQPGRSLRLSCAASAFTFSSYALHWVRQAPGKGLEWVTVISSNGRNKYYADSVKGRFTISRDNSKNTLYLQMNSLRVEDTAVYYCARGSSGYTYGYIDPLSNYYGMDVWGQGTTVTVSS
chain 2: DIVMTPRSVSLSVTPGEPASISCRSSQSLLHSNGYNYLDWYVQKPGQSPQLLIYLSSNRASGVPDRFSGSGSGTDFTLEISRVEAEDVAVYYCMQARQTPPTFGQGTKVEIK
B2: AG13-3E05 (protein)
chain 1: VQLQESGPGLVSPSETLSLTCTVSADSINSYYWNWIRQPPGKGLEWIGYIHYSGRSIHNPSLNRRVTISMDTSKNQFSLRLTSVTAADTAMYYCASLKKGETSPFDYWGQGTLVTVSS
chain 2: DIQMTQSPSTLSASVGDRVSLTCRASQSIGSWLAWYQQKPGKAPKLLIFHASSLESGVPSRFSGSGSGTEFTLTINSLQPDDFATYYCQQYYVYWTFGQGTKVEIK
B3: C1-F02 (protein)
chain 1: VQLQESGPGLVKPSETLSLTCTVSGGSIYSTIHYWGWIRQPPGKGLEWIGSIYYDANTYYNPSLKSRVTMSIDTSKNQFSLRVYSVTAADTAVYYCAKINSGYEYYYGMDVWGQGTTVTVSS
chain 2: EIVMTQSPGTLSVSPGERATLSCRASQSVRGNVAWYQQKSGQAPRLLIYNTSTRATGIPARFSGSGSGTEFTLTISSLQSEDLAVYYCQQYNNWLYTFGQGTKVEIK
B4: AG3-D06 (protein)
chain 1: QLQLQESGPGLVKPSETLSLTCSVSGGSISETIYYWGWIRQPPGKGLEWIGTIYSDGNTYYNPSLKSRVNMFVDTSDNQFSLKMKSLSAADTAVYYCARLRDGYKYYYGMDVWGQGTTVTVSS
chain 2: DIQMTQSPSSLSASVGDRVTIPCRASQTISTYLNWYQQRPGKAPKLLIYSASILERGVPSRFSGSGSGTDFTLTISSLQPEDFATYYCQWGSAISVTFGQGTKLEIK
B5: 045-09-1A01 (protein)
chain 1: QVQLQESGPGLVKPSQTLSLTCTVSGGSIRSGIHYWSWIRQFPGKGLEWIGLIHYSENTHHNPSLKSRVAMSVDTSKNQFSLTLSSVTAADTAVYYCARAAKESLCIGGSCDSNYEHYGLDVWGQGTTVTVSS
chain 2: DIQMTQSPSSLSASIGDRVTITCRASQSIRNYLNWYQQKPGKAPKLVIYAVSNLQSGVPSRFSGSGSGTDFTLTISSLQPEDLATYYCQQSYSTLPYTFGQGTKVEIK
B6: FISW-k.01 (protein)
chain 1: QVTLRESGPALVKPTQTLTLTCTFSGFSLSTSGMCVSWIRQPPGKALEWLALIDWDDGTFYSTSLKTRLTISKDTSKSQVVLTMTNMGPVDTGTYYCARKLYGDYSDWFDYWGQGILVTVSS
chain 2: SYELTQPLSVSVALGQTARITCGGNNIGSKNVHWYQQKPGQAPVLVIYRDSNRPSGIPERFSGSNSGNTATLTVSRAQAGDEADYYCQLSDSSIVVFGGGTKLTVL
B7: 029-09-2A06 (protein)
chain 1: EVQLVESGGGLVKPGGSLRLSCSASGFTFSSYTMHWVRQAPGKGLEWLSSISSSSAYIYYADSVKGRFTVSRDNAKKSLYLQMDSLRAEDTAIYFCARDGTSLTVAGPLDYWGQGTLVTVSS
chain 2: DIQMTQSPSSLSASVGDRVTITCRASQGIRDDLAWYQQKPGKAPKRLIYAASSLQSAFPARFSGSGSGTEFTLTISGLQPEDFATYYCLQYNSYPRTFGQGTKVEIK

The list shows a part of the results. Binding of human antibodies (heavy:light variable regions, tested as scFv in one mRNA-display pool) to influenza hemagglutinin, with or without the stem antibody CR9114 bound first. Score = (mean enrichment − median) / interquartile range of that screen; higher = more enriched, 0 = typical non-binder. Active = above the paper's cut-off per screen: stems 28; unblocked H1 Solomon Islands 5, H1 Michigan 3, H3 5, H5 19, H7 2.85, both B 5; blocked 9, 7, H5 10, H7 10, B Phuket 10, B Lee 11.5. Scores are scaled within each screen and are no affinities; replicates correlate at about 0.6 to 0.9, and antibodies rare in the pool are noisier.

One test has as its target Influenza A H1N1 A/Michigan/45/2015 hemagglutinin ectodomain. As to the kind of experiment: mRNA display binding score; higher = more enriched on the antigen. The conditions noted are these: antigen blocked with: 2 µM CR9114 IgG. On the procedure: (§1)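 A pool of natively paired antibodies, displayed as scFv on mRNA, was selected once on antigen-coated beads and sequenced before and after; two replicates.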
As to B1, the “mRNA display binding score” value is inactive: -0.032.
With B2, the “mRNA display binding score” value was inactive: 1.17.
Same read-out and setting: the same measure for B3: inactive: 2.02; for B4: inactive: 0.39.
Turning to B5, the “mRNA display binding score” value was active: 23.7.
As for B6, the “mRNA display binding score” value is active: 10.2.
The same measure, in the same setting: the figure for B7 is active: 7.61.

Still in this test, the particulars now being: antigen blocked with: nothing.
Consider B1, for which the “mRNA display binding score” value is inactive: 0.843.
On to B2, for which the “mRNA display binding score” value is inactive: 0.45.
In the case of B3, the “mRNA display binding score” value is inactive: -0.313.
For B4, the “mRNA display binding score” value was inactive: 0.327.
As to B5, the “mRNA display binding score” value was inactive: 0.406.
As to B6, the “mRNA display binding score” value is inactive: 0.896.
With B7, the “mRNA display binding score” value was inactive: -0.00531.

The next test concerns the target Influenza A H1N1 A/Solomon Islands/3/2006 hemagglutinin ectodomain. The description is as above. The settings on record: antigen blocked with: 2 µM CR9114 IgG. On the procedure:
as §1
For the molecule B1, the “mRNA display binding score” value is inactive: 0.487.
Take B2: the “mRNA display binding score” value is inactive: 2.86.
For the molecule B3, the “mRNA display binding score” value was inactive: -0.0949.
As to B4, the “mRNA display binding score” value was inactive: -0.03.
On the same count and under the same terms, the figure for B5 is inactive: 0.941.
In the case of B6, the “mRNA display binding score” value is active: 13.8.
For B7, the “mRNA display binding score” value was inactive: 4.89.

Still in this test, the particulars now being: antigen blocked with: nothing.
As to B1, the “mRNA display binding score” value is inactive: 0.553.
As for B2, the “mRNA display binding score” value is inactive: 0.279.
On to B3, for which the “mRNA display binding score” value was active: 6.69.
In the case of B4, the “mRNA display binding score” value is inactive: -0.14.
On to B5, for which the “mRNA display binding score” value is inactive: 0.181.
Same read-out and setting: the same measure for B6: inactive: 1.71.
Consider B7, for which the “mRNA display binding score” value is inactive: 2.67.

A further test deals with Influenza A H3N2 A/Singapore/INFIMH-16-0019/2016 hemagglutinin ectodomain. Described as above. The settings on record: antigen blocked with: nothing. On the procedure: as §1
Turning to B1, the “mRNA display binding score” value was inactive: 0.478.
In the case of B2, the “mRNA display binding score” value is inactive: -0.241.
As to B3, the “mRNA display binding score” value is active: 6.83.
Take B4: the “mRNA display binding score” value is inactive: -0.495.
For the molecule B5, the “mRNA display binding score” value is inactive: 3.18.
Consider B6, for which the “mRNA display binding score” value is inactive: 0.242.
With B7, the “mRNA display binding score” value was inactive: -0.54.

For the next test, the target named is Influenza A H5N1 A/Qinghai/1A/2005 hemagglutinin ectodomain. The description is as above. The settings on record: antigen blocked with: 2 µM CR9114 IgG. As for the experimental part: as §1
On to B1, for which the “mRNA display binding score” value is inactive: 0.0906.
B2: the “mRNA display binding score” value is inactive: 0.961.
For the molecule B3, the “mRNA display binding score” value was inactive: 0.271.
Take B4: the “mRNA display binding score” value is inactive: 3.39.
For the molecule B5, the “mRNA display binding score” value is inactive: -0.65.
Consider B6, for which the “mRNA display binding score” value is inactive: 0.294.
The same measure, in the same setting: the same measure for B7: inactive: 0.062.

The test is the same for the next values; noted with them: antigen blocked with: nothing.
As to B1, the “mRNA display binding score” value was inactive: 0.112.
On to B2, for which the “mRNA display binding score” value was inactive: -0.214.
Same read-out and setting: the same measure for B3: inactive: 0.0843; for B4: inactive: 4.89; for B5: inactive: -0.173.
On to B6, for which the “mRNA display binding score” value is inactive: 0.873.
Turning to B7, the “mRNA display binding score” value is inactive: -0.166.

For another test, the target named is Influenza A H7N9 A/Shanghai/2/2013 hemagglutinin ectodomain. The description is as above. The settings on record: antigen blocked with: 2 µM CR9114 IgG. On the procedure:
as §1
As to B1, the “mRNA display binding score” value is inactive: 0.384.
For the molecule B2, the “mRNA display binding score” value is inactive: -0.188.
Regarding B3, the “mRNA display binding score” value is inactive: -0.177.
Same read-out and setting: the same measure for B4: inactive: 0.319; for B5: inactive: 2.31.
For B6, the “mRNA display binding score” value is inactive: 1.18.
Same read-out and setting: the same measure for B7: inactive: 1.05.

Staying with this test, now noted: antigen blocked with: nothing.
Turning to B1, the “mRNA display binding score” value is inactive: 1.33.
Take B2: the “mRNA display binding score” value was inactive: 0.0213.
Take B3: the “mRNA display binding score” value was inactive: 0.496.
B4: the “mRNA display binding score” value was inactive: 0.661.
On to B5, for which the “mRNA display binding score” value was inactive: -0.0641.
Take B6: the “mRNA display binding score” value was inactive: 0.307.
In the case of B7, the “mRNA display binding score” value is inactive: -0.674.

In another test the target is Influenza B/Lee/1940 hemagglutinin ectodomain. The test is described as above. The settings on record: antigen blocked with: 2 µM CR9114 IgG. On the procedure: as §1
For B1, the “mRNA display binding score” value was inactive: -0.482.
Consider B2, for which the “mRNA display binding score” value is inactive: -0.183.
As for B3, the “mRNA display binding score” value is inactive: -0.537.
Consider B4, for which the “mRNA display binding score” value was inactive: -0.377.
Consider B5, for which the “mRNA display binding score” value is inactive: -0.107.
In the case of B6, the “mRNA display binding score” value was inactive: 3.53.
As for B7, the “mRNA display binding score” value is inactive: -0.705.

Staying with this test, now noted: antigen blocked with: nothing.
For the molecule B1, the “mRNA display binding score” value was inactive: 0.0872.
In the case of B2, the “mRNA display binding score” value was inactive: 0.482.
In the case of B3, the “mRNA display binding score” value was inactive: 1.06.
Consider B4, for which the “mRNA display binding score” value is inactive: -0.172.
Take B5: the “mRNA display binding score” value was inactive: 0.37.
For B6, the “mRNA display binding score” value is inactive: 1.75.
Consider B7, for which the “mRNA display binding score” value was inactive: -0.337.

The target in a further test is Influenza B/Phuket/3073/2013 hemagglutinin ectodomain. The description is as above. The conditions noted are these: antigen blocked with: 2 µM CR9114 IgG. On the procedure:
as §1
As for B1, the “mRNA display binding score” value is inactive: -0.11.
On to B2, for which the “mRNA display binding score” value was inactive: -0.000958.
Turning to B3, the “mRNA display binding score” value was inactive: 0.0434.
Same read-out and setting: the figure for B4 is active: 35.6; for B5 it is inactive: -0.225; for B6 it is inactive: 2.
As to B7, the “mRNA display binding score” value was inactive: -0.203.

Still in this test, the particulars now being: antigen blocked with: nothing.
For B1, the “mRNA display binding score” value is inactive: 0.0287.
The same measure, in the same setting: the figure for B2 is inactive: 0.793; for B3 it is inactive: 2.53; for B4 it is active: 23.
Turning to B5, the “mRNA display binding score” value is inactive: 0.214.
For B6, the “mRNA display binding score” value is inactive: 1.4.
Take B7: the “mRNA display binding score” value was inactive: -0.335.
